# In all, about 33,000 sequences were measured (“E-score (dimensionless, -0.5 to 0.5)”: median about -0.058, highest 2% from about 0.35 on). This is one part of the list.
# Tested on: MvaT
# Test: PBM 8-mer E-score (mean of HK and ME arrays) (E-score (dimensionless, -0.5 to 0.5)); higher = stronger relative binding preference; most listed sequences are background and not binding sites
# Summary of the method: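 Full-length P. aeruginosa MvaT, with glutathione S-transferase fused to its N-terminus (cloned into pTH6838 by isothermal assembly), was tested by protein binding microarray using a previously described protocol. Two universal double-stranded 60-mer arrays (ME and HK) were used, each with a constant 25-mer primer region and a variable 35-mer region covering all 8-mers. The rank-based 8-mer E-score (-0.5 to 0.5) is the mean of the two arrays, parsed with a custom Python script.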
row,Sequence,PBM 8-mer E-score
1,CCTTTTGC,-0.114
2,TATTAGGA,0.247
3,AAACAGAA,0.187
4,CCTCACTA,-0.21
5,ATCGGCCC,-0.0799
6,CGGCGTAA,-0.0379
7,CTCATACA,-0.105
8,AATTCCAA,0.206
9,CTTCCAGA,-0.133
10,AAGCAATG,-0.0923
11,GCGACGAA,0.145
12,ACGTAAAA,0.158
13,CCTTTAAA,0.211
14,AAGAGATT,0.0773
15,TAAGGCTA,0.0276
16,CCGCACGC,-0.31
17,ACCTTACA,0.0995
18,CCCTTGTC,-0.221
19,GGAGATAA,0.0601
20,ATAGTGCC,-0.0299
21,AGGAACCG,-0.283
22,CACGCGAC,-0.198
23,CGCGCATA,0.113
24,AGGACGAT,-0.107
25,GGACGGTA,-0.175

row,Sequence,PBM 8-mer E-score
1,CCTCTGGA,-0.172
2,ACATAAGG,0.00773
3,GCCTGTCA,-0.21
4,ATCGGAAT,0.0812
5,AGTTGAAG,0.243
6,CCGCAGCC,-0.345
7,CACATAAC,0.209
8,ACACCCTA,0.0401
9,AAGCAACC,-0.0129
10,AACTGACG,0.0522
11,CCGTTCGC,-0.222
12,ATCCGACG,-0.0239
13,AGAGCGCT,-0.092
14,GGTTACTA,0.176
15,AACACATC,0.0583
16,ACGCTAAT,0.174
17,CAGGACGG,-0.141
18,ATCTCAAT,0.0631
19,ACAGTGCT,-0.105
20,ACGAACTC,-0.0732
21,ATATGTCG,0.22
22,ATTTAAAC,0.398
23,AGTCACTG,-0.0346
24,CTCCTTAA,-0.0285
25,GGCTGGAC,-0.26

row,Sequence,PBM 8-mer E-score
1,TAACCTTA,0.0355
2,AATATACA,0.413
3,GGTGGTGA,-0.106
4,CGTGTTCA,-0.0519
5,TTGGCAAA,0.0635
6,ACCATGAT,-0.0366
7,CTAGTCAA,-0.00516
8,GGGTAGAC,-0.152
9,CGGCCAAG,-0.206
10,ATCTCACC,0.0166
11,ACCTTGAC,-0.148
12,ACATCCTC,-0.0219
13,CTCTTGCA,-0.0689
14,TAATGGCA,0.181
15,AGTCTCCA,-0.108
16,CTCCGCGA,-0.173
17,CGCTCGCC,-0.25
18,CCGAATCC,-0.188
19,CCGATGAG,-0.235
20,CCATTGCC,-0.0399
21,GCTCAAGA,-0.189
22,CTGTATTC,0.0463
23,GGTGTGTA,0.0501
24,CTATCCAC,-0.0769
25,AGCCCTAA,-0.24

row,Sequence,PBM 8-mer E-score
1,ACACACGA,-0.0249
2,CGACTATA,0.241
3,ATACTGCA,0.213
4,CGCCACTC,-0.172
5,CAGATCAG,-0.155
6,ACTGGATC,-0.231
7,CGTTCCTA,-0.143
8,AAATGAAT,0.286
9,AGATAATA,0.366
10,AAAGCGCC,-0.135
11,GAGGTGCA,-0.168
12,AGAGAAAT,0.134
13,AAACGTGG,-0.101
14,CACTCACC,-0.00829
15,AAGGCTCT,-0.24
16,AGTCCCCC,-0.306
17,AGAAGAAT,0.0662
18,ATGTCCCC,-0.219
19,CCTTTGGA,-0.14
20,ATTACTTC,0.348
21,CTTATATC,0.184
22,AGGATAGA,-0.139
23,CCTAATCA,-0.0355
24,AGATCCCC,-0.279
25,CTCTTAAA,0.125

row,Sequence,PBM 8-mer E-score
1,AGTCTCGG,-0.109
2,ATGGCATA,0.0609
3,AGCCCATG,-0.157
4,GGATCCCC,-0.289
5,CATCTGCA,-0.119
6,CTTGGCCC,-0.249
7,GTGCTACA,-0.00216
8,GTTGCCCA,-0.152
9,AGCTTGTG,-0.121
10,ACGTGGAA,-0.126
11,AGGGAGAC,-0.191
12,CCTCTGGC,-0.359
13,TTCGAAAA,0.164
14,TAGCAGAA,0.0296
15,ATTTAGCA,0.237
16,AGGATGAG,-0.0489
17,CGCGAATC,-0.113
18,ACCAAGAA,-0.0662
19,ATACTCCC,0.157
20,AAGTAGTA,0.289
21,AACACTGA,0.164
22,CTATTGCC,0.0325
23,GCAGAGCC,-0.388
24,CGGCGTGC,-0.257
25,GGGCTAAC,-0.0538

row,Sequence,PBM 8-mer E-score
1,AACTCATC,-0.0983
2,CCGAAACC,-0.165
3,ACTCCATG,-0.0328
4,CACGCTAG,-0.0779
5,AACGGAAG,-0.0172
6,CCGTTCAA,0.0774
7,GTAATCCA,0.0646
8,AGAATCAA,0.0548
9,AGATTTGG,-0.0242
10,CCGACTCG,-0.155
11,TACATCAA,0.116
12,CACAACCA,0.0819
13,AATTCTGC,0.148
14,GAGTGGGC,-0.211
15,AAGCGGCG,-0.201
16,CCATCAAC,-0.145
17,AACAGAGA,-0.0527
18,ATGGGGCC,-0.287
19,CTATGTTC,-0.172
20,AATAGTAT,0.308
21,CAATGAAG,0.0843
22,AACGGTTA,0.0448
23,AACTTATT,0.398
24,ACACTAGC,0.00371
25,GCCAGCGA,-0.185

row,Sequence,PBM 8-mer E-score
1,AGACCACT,-0.108
2,AATAAGTC,0.298
3,AAATACAA,0.33
4,CGGGGGTC,-0.393
5,AACTGTAG,0.125
6,AAGTATCC,0.0849
7,CGGACACG,-0.242
8,CCGGCTCG,-0.246
9,CGACGAGA,-0.132
10,GGGAACCC,-0.303
11,CATGAAAA,0.0813
12,CACTTCGC,-0.174
13,GCCTGTAC,-0.0378
14,CCACTAGG,-0.207
15,AATACCGC,0.146
16,CTTCATAA,0.172
17,CGACAACA,0.0714
18,ATTTTCCA,0.157
19,GGTCGCAC,-0.201
20,ACTTCCAT,0.123
21,GGGTCCTA,-0.211
22,CATTGACC,-0.0108
